Reference: PubChem BioAssay AID2675 (National Center for Advancing Translational Sciences (NCATS), 2010)
About 100 (0.036%) of roughly 280,000 compounds were called active. The shares of active, inactive and inconclusive entries below differ from those in the screen. The call rests on the fitted dose curve; in most records, active means well fitted inhibition curve with a large enough effect in the signal ratio, with a control signal flat (not every such curve was filed as active); inconclusive means small, poorly fitted or top-dose-only effect, or effect the other way, or a change in a side signal; inactive means no such curve, though single readings can be large or run the other way; the % refers to the signal ratio. A potency beside an inconclusive call is a rough fit, not a confirmed value. “Side channel” marks fits to a control or component signal instead of the main read-out.

Target: Muscleblind-like protein 1 (Homo sapiens) (UniProt Q9NR56)
Sequence of UniProt Q9NR56 (Q9NR56 whole entry, looked up): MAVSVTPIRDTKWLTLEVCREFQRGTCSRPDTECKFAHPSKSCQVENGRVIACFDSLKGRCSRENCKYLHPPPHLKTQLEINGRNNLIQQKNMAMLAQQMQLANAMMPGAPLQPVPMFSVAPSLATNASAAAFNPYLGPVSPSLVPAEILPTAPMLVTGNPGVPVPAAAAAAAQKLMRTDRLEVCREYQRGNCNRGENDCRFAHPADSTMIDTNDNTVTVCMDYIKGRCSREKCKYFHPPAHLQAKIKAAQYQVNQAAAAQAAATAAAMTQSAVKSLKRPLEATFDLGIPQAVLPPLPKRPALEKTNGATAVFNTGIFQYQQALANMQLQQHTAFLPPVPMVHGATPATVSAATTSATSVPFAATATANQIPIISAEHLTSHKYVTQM
Test: qHTS Assay for Inhibitors of MBNL1-poly(CUG) RNA binding
Settings: TR-FRET MBNL1-His/biotin-(CUG)12 binding, 665/545 ratio; activity change, negative = inhibition: at 57.5 µM (top of the series)
How it was run: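 TR-FRET between His-tagged MBNL1 and biotin-(CUG)12 RNA, detected with Tb anti-His antibody (0.055 ng/ul) and streptavidin-XL665 (5 nM), 60 min at room temperature. Compounds titrated 92 nM to 58 uM; 665/545 nm ratio normalized to buffer and complex controls.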
On the % scale 0 is the no-effect control and ±100 the full control effect; potency means the concentration at half of the fitted maximal effect; tags describe the fitted curve by direction and shape or compound fluorescence and quenching.

| SMILES | Potency | activity change, negative = inhibition |
| --- | --- | --- |
| COC(=O)CCSc1cc([N+](=O)[O-])cc2c1c(C1OCCO1)nn2-c1ccccc1 | inconclusive: 14.1 µM [quencher, side channel, partial curve] |  |
| Cc1cc(C)nc(N/N=C2/CCSc3ccc(F)cc32)n1 | inconclusive: 14.1 µM [quencher, side channel, partial curve] |  |
| Cc1ccc(-c2c3c(nc4sc(C(N)=O)c(N)c24)CCCC3)o1 |  | inactive: -6.09% [at 11.5 µM] |
| CCCCCn1c(=O)c(C(=O)c2ccccc2)nc2ccccc21 | inconclusive: 1.12 µM [quencher, side channel, full curve, poor fit] |  |
| Cc1nn(C)c(Oc2ccccc2)c1CCNS(=O)(=O)c1ccc(Cl)cc1 | inconclusive: 3.98 µM [quencher, side channel, single point] |  |
| O=C(NCc1ccccn1)C1CCCN(S(=O)(=O)c2cccc3nsnc23)C1 (centres undefined) | inconclusive: 11.2 µM [quencher, side channel, partial curve] |  |
| O=C(N/N=C/c1ccc2c(c1)OCO2)c1ccc(Cl)cc1Cl | inconclusive: 25.1 µM [quencher, side channel, single point] |  |
| Fc1ccccc1-c1csc(=Nc2cccnc2)n1CCCn1ccnc1 | inactive |  |
| COc1ccc(/C=N/N=C2/NC(=O)C(CC(=O)O)S2)cc1OS(=O)(=O)c1ccccc1 (centres undefined) | inconclusive: 39.8 µM [quencher, side channel, single point] |  |
| Cc1ccc(NC(=O)Cn2nc(-c3ccccc3)nc2-c2ccccc2)c(C)c1 | inconclusive: 0.1 µM [fluorescent, side channel, full curve, poor fit] |  |
| COC(=O)c1nn(-c2ccc(OC)cc2)c(=O)c2c(N)sc(C)c12 | inconclusive: 2.24 µM [quencher, side channel, partial curve] |  |
| Cc1ccc2nsnc2c1NC(=O)c1ccc([N+](=O)[O-])cc1 | inconclusive: 8.91 µM [quencher, side channel, partial curve] |  |
| COCCCNC(=S)N(CCN(C)C)Cc1cc2cc3c(cc2[nH]c1=O)OCCO3 | inconclusive: 28.2 µM [quencher, side channel, single point] |  |
| COC(=O)[C@@]1(Cc2ccc(OC)cc2)[C@H]2c3cc(C(=O)N4CCCC4)n(CCSCCO)c3C[C@H]2CN1C(=O)c1ccccc1 | inconclusive: 20 µM [inhibitor, single point] |  |
| COc1cc(NC(=O)c2cc([N+](=O)[O-])ccc2NC(=O)CNC2CCCCC2)cc(OC)c1 | inconclusive: 15.8 µM [quencher, side channel, partial curve] |  |
| O=C(CNC(=O)c1ccccc1F)N/N=C/c1cccnc1 | inconclusive: 15.8 µM [quencher, side channel, partial curve] |  |
| NC(=S)N/N=C1\CCOc2ccc(F)cc21 | inconclusive: 20 µM [quencher, side channel, partial curve] |  |
| O=S(=O)(c1cccc(S(=O)(=O)N2CCC(N3CCCCC3)CC2)c1)N1CCOCC1 | inactive |  |
| COC(=O)c1cc(C)sc1NC(=O)CCc1ccccc1 | inactive |  |
| O=C(O)c1cccc(-n2cccc2/C=N/O)c1 | inactive |  |

| SMILES | Potency | activity change, negative = inhibition |
| --- | --- | --- |
| COc1cc(/C=N/NC(=O)c2ccc(C)nc2)cc([N+](=O)[O-])c1O | inconclusive: 11.2 µM [quencher, side channel, partial curve] |  |
| CCOC(=O)CC(C)(C)/C(C)=N/Nc1ccc([N+](=O)[O-])cc1[N+](=O)[O-] | inconclusive: 7.08 µM [quencher, side channel, partial curve] |  |
| CC(=O)c1sc(=S)n(-c2ccccc2)c1C | inconclusive: 15.8 µM [quencher, partial curve] |  |
| CC(=O)NC1=NC(=O)/C(=C/c2cn(C(C)=O)nc2-c2ccccc2)S1 | inconclusive: 17.8 µM [quencher, partial curve] |  |
| CC(C(=O)OCC(=O)c1ccc([N+](=O)[O-])cc1)N1C(=O)C2C3C=CC(C3)C2C1=O (centres undefined) | inconclusive: 11.2 µM [quencher, partial curve] |  |
| COc1ccccc1/C=N/NC(=O)c1nnn(-c2nonc2N)c1-c1cccs1 | inconclusive: 39.8 µM [quencher, side channel, partial curve] |  |
| CC1(C)CC(=O)C2=C(C1)c1c(ccc3ccccc13)NC2c1cc([N+](=O)[O-])cc([N+](=O)[O-])c1O (centres undefined) | inconclusive: 28.2 µM [quencher, side channel, partial curve] |  |
| Cc1ccc(-c2ccc(/C=N/N3C(=O)C4C5C=CC(CC5)C4C3=O)o2)c([N+](=O)[O-])c1 (centres undefined) | inconclusive: 15.8 µM [quencher, side channel, partial curve] |  |
| CC1(C)CC2CC(C)(CN2C(=O)CN2C(=O)c3ccccc3C2=O)C1 (centres undefined) | inconclusive: 17.8 µM [quencher, side channel, partial curve] |  |
| CCOC(=O)c1cn(-c2c(Cl)cccc2Cl)c2cc(Cl)c([N+](=O)[O-])cc2c1=O | inconclusive: 20 µM [quencher, side channel, partial curve] |  |
| CCOC(=O)CC1C(=O)NCCN1S(=O)(=O)c1cccc(C(F)(F)F)c1 (centres undefined) | inactive |  |
| CC1(CC(=O)N/N=C/c2ccc(-c3ccc(C(=O)O)cc3)o2)OCCO1 | inconclusive: 17.8 µM [quencher, side channel, partial curve] |  |
| O=C(NNC(=O)C1CCCO1)c1ccc([N+](=O)[O-])cc1 (centres undefined) | inconclusive: 15.8 µM [quencher, side channel, partial curve] |  |
| O=c1[nH]c(=S)[nH]cc1Oc1ccc(Cl)cc1Cl | inactive |  |
| O=C1CS/C(=N/N=C/c2ccccc2OS(=O)(=O)c2ccccc2)N1 |  | inactive: -7.58% [at 11.5 µM] |
| COc1ccc(NC(=O)CCNS(=O)(=O)c2cccc3nonc23)c(OC)c1 | inconclusive: 12.6 µM [quencher, side channel, partial curve] |  |
| Cc1ccc(C(=O)N/C(=C/c2cccc([N+](=O)[O-])c2)C(=O)NC(C)C)cc1 | inconclusive: 22.4 µM [activator, single point] |  |
| CCn1c(=O)c(C(=O)NCc2ccc(Cl)cc2)c(O)c2ccccc21 | inactive |  |
| O=[N+]([O-])c1cccc(NC(=S)N2CCCC2)c1 | inconclusive: 22.4 µM [quencher, side channel, partial curve] |  |
| CCC(Sc1ccc2nnc(-c3ccc(OC)c(OC)c3)n2n1)C(=O)O (centres undefined) | inconclusive: 25.1 µM [quencher, side channel, partial curve] |  |

| SMILES | Potency | activity change, negative = inhibition |
| --- | --- | --- |
| Cn1ccc(NC(=O)Nc2ccc(Cl)cc2Cl)n1 | inconclusive: 5.62 µM [quencher, side channel, single point] |  |
| O=C(CSc1nc2ccccc2[nH]1)NC(=O)NCc1ccco1 | inconclusive: 35.5 µM [quencher, side channel, single point] |  |
| O=C1CC(c2cccc(Cl)c2)Cc2nc(N3CCN(c4ccccc4)CC3)ncc21 (centres undefined) | inactive |  |
| O=C(/C=C/c1ccccc1[N+](=O)[O-])N1CCN(c2ccc(F)cc2)CC1 | inconclusive: 25.1 µM [quencher, side channel, partial curve] |  |
| Cc1c(=O)n(OCc2ccccn2)c2ccccc2[n+]1[O-] | inconclusive: 15.8 µM [quencher, partial curve] |  |
| C=CCNC(=O)COC(=O)c1ccc(Sc2nncn2C)c([N+](=O)[O-])c1 | inconclusive: 14.1 µM [quencher, side channel, partial curve] |  |
| O=C(O)CCN1C(=O)c2ccc(NC(=O)CSCc3ccccc3)cc2C1=O | inactive |  |
| Cc1cccc(NC(=O)CCNS(=O)(=O)c2cccc3nonc23)c1 | inconclusive: 12.6 µM [quencher, side channel, partial curve] |  |
| N#Cc1cnc2cc(-c3ccccc3)nn2c1N | inconclusive: 31.6 µM [fluorescent, side channel, single point] |  |
| O=C(O)c1cc(O)c2c(c1)C(=O)c1cccc(O)c1C2=O | inconclusive: 2.51 µM [quencher, side channel, full curve] |  |
| O=C1C=CC(=O)N1c1ccc(OC(F)F)cc1 | inactive |  |
| CCOC(=O)N1CCN(S(=O)(=O)c2ccc(C)c([N+](=O)[O-])c2)CC1 | inconclusive: 39.8 µM [quencher, side channel, single point] |  |
| COc1ccc(-c2nnc3ccc(SCC(=O)Nc4nccs4)nn23)cc1OC | inconclusive: 39.8 µM [activator, single point] |  |
| CN(C)S(=O)(=O)c1ccc(NC(=O)Cn2c(-c3ccccc3)noc2=O)cc1 | inconclusive: 79.4 µM [inhibitor, single point] |  |
| Cc1c(NS(=O)(=O)c2ccc([N+](=O)[O-])cc2)c(=O)n(-c2ccccc2)n1C | inconclusive: 14.1 µM [quencher, side channel, partial curve] |  |
| CCN1CCCC(Sc2nc3c([nH]2)c(=S)n(C)c(=O)n3C)C1 (centres undefined) | inconclusive: 14.1 µM [quencher, side channel, partial curve] |  |
| N#C/C(=C\c1cccc(Cl)c1)C(=O)c1ccccc1 | inactive |  |
| O=[N+]([O-])c1ccccc1/C=C/CN1CCCC(CO)C1 (centres undefined) | inconclusive: 14.1 µM [quencher, side channel, partial curve] |  |
| COc1ccccc1Nc1ccc([N+](=O)[O-])cn1 | inconclusive: 15.8 µM [quencher, side channel, partial curve] |  |
